Measured values reported in the supplement of paper PMC11417369.
This is one part of the list.

Tested on: PfHDP1 homeodomain (GST-tagged)
Assay: gcPBM binding intensity (ln(normalized median fluorescence intensity)); higher = stronger DNA binding
How it was run: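 Each value is the highest Masliner-normalised natural-log median intensity across replicate spots of either orientation of a probe. The probes were primer-extended double-stranded 36-bp intergenic genomic sequences on an Agilent 4 × 180k array, alongside negative controls, exposed for 1 h to GST-tagged P. falciparum DNA-binding domains expressed in E. coli. Bound protein was picked up with Alexa488 anti-GST antibody and scanned at 488 nm.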

| Sequence | gcPBM binding intensity (ln) |
| --- | --- |
| ACTTCATAAACATTTTGTACGTATGTATCTTTTTAT [XGTACX_site7012] | 6.75 |
| TTAATATGGAAATGTTGTACATTTCTTGAAGCATTC [XGTACX_site525] | 6.11 |
| ATTATCCATGCATTTACACACACACTAATAAAAATT [CACACA_site9358] | 7.54 |
| CATAAATACAGATATACACACATATATATATATATA [CACACA_site4528] | 9.33 |
| TTTAACATAAATTAAACACACAATAAAATACATTAA [CACACA_site6699] | 6.6 |
| ATAATACATATAGAAGGTACACTATTATTTTCCTGA [XGTACX_site903] | 6.13 |
| GAGGTACATTAATTAGTGCATTAAAATTTTTATCCT | 9.85 |
| ATATAGTAAATGTTCACACATACAAATATATATATA [CACACA_site5518] | 8.53 |
| AAGTTTTCTTAAAGCTGTACTTTTTAAAAATAAAAT [XGTACX_site7716] | 5.87 |
| AATGATACTTAGGGGCATGTCTCTGGGGGCATAACC [CACACA_negctrl_site591] | 6.63 |
| ATATATTTCTGTCAAGCACACATAATATTAATATAT [CACACA_site7993] | 6.74 |
| TATATATAATTATAAGAACACACATATATATATATA [CACACA_site8786] | 9.14 |
| TACAAATATAGATGCACACACATATAGGTATATGTG [CACACA_site7439] | 8.78 |
| GTTATAAACAAAATAAATATATGAATATATAATAAT [XGTACX_negctrl_site96] | 6.21 |
| CATATTATATTTTCATGTACACATAACATATTTATA [XGTACX_site4787] | 6.68 |
| TTAAAAAAAAAAAAAAGTACATAAGTATATATAATA [XGTACX_site4295] | 6.08 |
| CATATTTTTTCTTAAACACACACATATATATATATA [CACACA_site8920] | 9.12 |
| TAAAAGGGGATATATGAACACACAAAAAAAAAATAT [CACACA_site8940] | 6.79 |
| TATATATATATGTACACACACACATATAAATAAATA [CACACA_site443] | 8.71 |
| TAAATGTTTCTCAAAAGTACACATGTGATATTTCTT [XGTACX_site2065] | 6.19 |
| ATATTAAGTTTTATTACACACTCTCAATTTTTATTT [CACACA_site4206] | 6.63 |
| TAAATATATATATATTGTACAAAACAAATGTGAATT [XGTACX_site696] | 7.1 |
| TTAAAAATATTATGTACACACATTTTAGATATTTGT [CACACA_site1846] | 6.23 |

| Sequence | gcPBM binding intensity (ln) |
| --- | --- |
| TAATTAAAATCATATACACACCCATATATATATATA [CACACA_site8524] | 9.35 |
| TCCTAATATTTGTCAAATTTCAAAATAAATAAAATG [XGTACX_negctrl_site540] | 6.36 |
| AATAGAATAATCCTTACACACACACGCGCACGAATA [CACACA_site6365] | 7.12 |
| ATTTTATTTTTTTGTGATAATTGATTTATATATTGT [TGCATGCA_negctrl_site563] | 6.6 |
| TATATATTACATTGTTGTACATATATATTATATATA [XGTACX_site60] | 6.23 |
| ATTATTTCTTTGTGATGTACAAATAAACATGTTGGT [XGTACX_site5636] | 6.54 |
| AATACAATAAAATAGTGTACATATATATTATGTATA [XGTACX_site8258] | 6.47 |
| ATATATATATATATTTGTACGTATTATGTATTTTTT [XGTACX_site3530] | 9.09 |
| TTAAAATATGATATATGTACATAATTACTAAAAACA [XGTACX_site276] | 6.65 |
| TTTATATTATACTATACATGCATATAATAAAGGTCA [TGCATGCA_site934] | 6.36 |
| GAATAAATTAAAAACGCATGTATCATTACTACATAA [TGCATGCA_site111] | 6.16 |
| AAAGCACCCAGGCACACACACAAAGGAAAAGAAAAA [CACACA_site232] | 6.32 |
| ATAATTATTAAGAGAACATGCAAAATATATATGTTT [TGCATGCA_site503] | 6.68 |
| ATATATATTTCTTAAAGTACATAATAATAAAAATAT [XGTACX_site8981] | 6.47 |
| TTTTTTTCTTGTTTTAAATAATATACTGGAAAAAAA [CACACA_negctrl_site585] | 6.01 |
| TTTTTTTTTTTGTGGGTGCGTTTATAAAAACAGGAA | 6.95 |
| AGAGAGAAAGTTATAACATGCAACAATTTTTAGAAC [TGCATGCA_site96] | 7 |
| AATATATACATATATTGTACATATAGTTTCTTGCAT [XGTACX_site7871] | 6.29 |
| TTTCCATATTGTGGATGTACGTTTTGAGGTTTTTAC [XGTACX_site3362] | 6.15 |
| TTTTAATAAACAAAACGTACACATTATTATTATATA [XGTACX_site335] | 6.19 |
| TTTGTAGTTTGCACATGTACACATTTCAAAATAAAG [XGTACX_site7568] | 10.7 |
| GGGTTCAATTTAAAGAGTACAAAAAATGTAGGTCAT [XGTACX_site5290] | 6.43 |
